Positions count from the first letter of the chain named.
What was measured:
[1] = target: T1, CSPG4 (chondroitin sulfate proteoglycan 4) on human tumor cell lines (human, UniProt Q6UVK1 30-2322); experiment: flow cytometry on SW1353 chondrosarcoma cells, 8-point dose curve, anti-hIgG-AF488
T1 construct: Endogenous CSPG4 on human cell lines (A2058, Malme-3M, A375, SW1353, NCI-H2052); also called HMW MAA; MCSP
Method: (§1) Flow Cytometry—Cells were rinsed with PBS (phosphate buffered saline, pH 7.4) and harvested with Versene (Thermo Fisher) prior to incubation with FACs buffer (PBS+1% fetal bovine serum (FBS; source BioSun) containing test antibody or ADCs for 1 h at 4° C. Cells were rinsed and washed with FACs buffer (PBS+1% FBS) and detection was performed with anti-bigG-AF488. Cells were analyzed on a FACs Canto II (BD Biosciences). Quantitative FACs (qFACs) was performed to measure the number of antigen binding sites with the DAKO QifiKit (DAKO, Carpinteria, CA), according to the manufacturer's directions.
(§2) FACs binding of ARD107 antibody and corresponding conjugates to CSPG4-positive cell lines was conducted. The melanoma A2058 and Malme-3M, the SW1353 chondrosarcoma, and the NCI-H1975 lung cell lines were incubated with increasing concentrations (8-point dose curve) of the antibody, conjugates (ARD107-vcMMAE or ARD107-SN38 (ARD107-CL2A-SN-38)), or isotype control (hIgG1) for 1 hr at 4° C. Detection was done with an anti-hIgG-AF488 secondary antibody.

[2] = target: T1, CSPG4 (chondroitin sulfate proteoglycan …); experiment: flow cytometry on A2058 melanoma cells, 8-point dose curve, anti-hIgG-AF488
Method: as §1, §2

[3] = target: T1, CSPG4 (chondroitin sulfate proteoglycan …); experiment: flow cytometry on Malme-3M melanoma cells, 8-point dose curve, anti-hIgG-AF488
Method: as §1, §2

NCI-H1975 lung cell line = target: T2, NCI-H1975 lung cell line (Homo sapiens, UniProt Q6UVK1); experiment: FACS binding to NCI-H1975 lung cells; details: Example 2; NCI-H1975 compared with the melanoma and NCI-H2052 lines
T2 construct: host or cells: NCI-H1975 lung carcinoma cells
T2 sequence (Q6UVK1 30-2322): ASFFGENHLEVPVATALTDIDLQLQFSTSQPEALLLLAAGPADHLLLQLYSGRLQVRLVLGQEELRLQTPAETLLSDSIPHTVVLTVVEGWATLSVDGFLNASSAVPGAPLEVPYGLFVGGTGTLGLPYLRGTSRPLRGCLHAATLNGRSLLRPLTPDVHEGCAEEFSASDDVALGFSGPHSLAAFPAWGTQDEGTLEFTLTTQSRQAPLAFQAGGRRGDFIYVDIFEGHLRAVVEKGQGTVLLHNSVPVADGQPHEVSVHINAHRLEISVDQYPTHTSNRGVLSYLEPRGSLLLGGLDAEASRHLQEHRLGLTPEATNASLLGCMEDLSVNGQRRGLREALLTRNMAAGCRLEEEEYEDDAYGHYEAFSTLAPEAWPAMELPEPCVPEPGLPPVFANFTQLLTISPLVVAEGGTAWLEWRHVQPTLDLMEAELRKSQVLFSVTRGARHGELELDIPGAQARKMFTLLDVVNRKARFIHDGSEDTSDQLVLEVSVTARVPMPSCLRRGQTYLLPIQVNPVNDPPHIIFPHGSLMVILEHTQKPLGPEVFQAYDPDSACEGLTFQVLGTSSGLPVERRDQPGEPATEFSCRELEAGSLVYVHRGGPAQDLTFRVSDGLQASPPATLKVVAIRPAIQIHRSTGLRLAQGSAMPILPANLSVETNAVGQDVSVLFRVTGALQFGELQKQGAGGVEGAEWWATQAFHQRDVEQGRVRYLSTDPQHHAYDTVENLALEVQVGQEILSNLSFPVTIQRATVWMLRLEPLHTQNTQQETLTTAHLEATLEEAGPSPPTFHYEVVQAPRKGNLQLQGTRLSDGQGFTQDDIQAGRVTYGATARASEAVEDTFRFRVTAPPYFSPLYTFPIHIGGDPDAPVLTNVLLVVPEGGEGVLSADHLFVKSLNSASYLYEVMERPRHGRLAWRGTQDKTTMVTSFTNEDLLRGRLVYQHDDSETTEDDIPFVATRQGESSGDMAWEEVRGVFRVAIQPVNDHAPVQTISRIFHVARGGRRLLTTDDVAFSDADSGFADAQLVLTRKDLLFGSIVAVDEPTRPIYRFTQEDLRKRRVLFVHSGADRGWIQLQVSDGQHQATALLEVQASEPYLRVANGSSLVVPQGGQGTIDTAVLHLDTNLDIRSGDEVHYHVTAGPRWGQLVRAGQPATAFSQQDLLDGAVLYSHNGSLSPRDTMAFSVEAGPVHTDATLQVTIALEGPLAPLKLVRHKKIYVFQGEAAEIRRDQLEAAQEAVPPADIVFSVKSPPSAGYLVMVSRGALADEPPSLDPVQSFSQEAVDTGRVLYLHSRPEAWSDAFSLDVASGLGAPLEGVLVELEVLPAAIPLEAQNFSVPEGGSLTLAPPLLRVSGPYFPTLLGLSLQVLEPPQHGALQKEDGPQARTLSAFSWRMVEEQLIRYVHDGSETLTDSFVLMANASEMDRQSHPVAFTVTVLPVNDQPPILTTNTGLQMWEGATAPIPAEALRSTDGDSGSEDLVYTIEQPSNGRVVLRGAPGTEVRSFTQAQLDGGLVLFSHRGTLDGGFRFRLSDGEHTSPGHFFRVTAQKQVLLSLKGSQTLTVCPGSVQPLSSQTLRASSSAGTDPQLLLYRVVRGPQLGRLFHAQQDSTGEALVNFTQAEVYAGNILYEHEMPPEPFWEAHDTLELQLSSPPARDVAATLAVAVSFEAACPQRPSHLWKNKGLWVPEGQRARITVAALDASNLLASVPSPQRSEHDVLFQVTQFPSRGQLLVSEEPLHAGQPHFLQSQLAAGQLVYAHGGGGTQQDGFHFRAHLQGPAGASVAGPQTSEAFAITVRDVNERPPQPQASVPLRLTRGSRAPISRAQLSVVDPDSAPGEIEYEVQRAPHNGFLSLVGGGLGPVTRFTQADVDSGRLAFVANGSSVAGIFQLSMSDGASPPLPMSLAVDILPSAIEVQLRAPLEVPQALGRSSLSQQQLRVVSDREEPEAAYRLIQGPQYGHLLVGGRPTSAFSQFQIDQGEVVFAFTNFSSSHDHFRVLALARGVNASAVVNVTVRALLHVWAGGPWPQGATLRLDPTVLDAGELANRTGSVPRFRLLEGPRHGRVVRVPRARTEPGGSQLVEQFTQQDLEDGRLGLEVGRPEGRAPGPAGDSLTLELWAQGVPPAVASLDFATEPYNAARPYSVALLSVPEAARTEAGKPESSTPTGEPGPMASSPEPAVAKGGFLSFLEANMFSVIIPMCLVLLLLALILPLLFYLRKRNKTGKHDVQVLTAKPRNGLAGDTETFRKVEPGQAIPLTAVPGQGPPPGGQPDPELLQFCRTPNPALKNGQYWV
Method: as §1, §2
The CSPG4+A2058 and A375 melanoma and the lung NCI-H2052 and NCI-H1975 cell lines were incubated with increasing concentrations of the antibody (6-point dose curve) for 1 hr at 4° C. Detection was done with an anti-hIgG-AF488 secondary antibody.

A375 melanoma xenograft = A375 melanoma xenograft model; type: in vivo, Balb/c mice; details: Example 5
Method: (§3) Mouse Xenograft Studies—All animal experiments were conducted according to IACUC (Institutional Animal Care and Use) approved protocols following AAALAC (Association for Assessment and Accreditation of Laboratory Animal Care) guidelines. Two million A2058 or A375 melanoma cells were implanted into the right flank of Balb/c mice. Tumor growth was monitored twice weekly with caliper measurements and tumor volume calculated with the formula (V=0.5a×b^2 where a=longest and b=shortest diameter). Mice were treated intravenously with test compounds when tumors reached ˜150 mm3. Tumor growth, body weights, and general health of the mice were continuously monitored for 1 week after the final dose of the test agent. Data was graphed with Prism (GraphPad, La Jolla, CA).
Mice were implanted with A2058 melanoma cells and treated with the ADCs when tumors achieved 150 mm3. ARD107-SN38 was given intravenously once every 4 days for 6 doses (arrows). ARD107-vcMMAE was given intravenously once every 4 days for 4 doses.
The results of the in vivo testing of ARD107-vcMMAE and ARD107-SN38 ADCs in the A375 melanoma xenograft model are shown in FIG. 5. Tumor-bearing mice was given ARD107-SN38 intravenously once every 4 days for 6 doses (arrows) or ARD107-vcMMAE once every 4 days for 4 doses. One group of mice was given 8 mg/kg ARD107-SN38 once every 4 days for 4 doses. […]

A2058 melanoma xenograft = A2058 melanoma xenograft model; type: in vivo, Balb/c mice; details: Example 8; for tumor burden compared to Vehicle (in words): intravenously once every 4 days for 4 doses, tumors 200 mm3 at start, p<0.025 (vcMMAE preparations), p<0.05 (Gly-vcMMAE)
Method: as §3
Mice were implanted with A2058 melanoma cells and treated with the ADCs when tumors achieved 150 mm^3. ADCs were given intravenously once every 4 days for 4 doses (arrows) or as indicated in the legend.
Mice were implanted with A2058 melanoma cells and treated with the ADCs when tumors achieved 200 mm3. ADCs described in Example 6 were given intravenously once every 4 days for 4 doses (arrows in FIG. 7). ARD107-vcMMAE was given intravenously once every 4 days for 4 doses. […] Treatment of mice with 3 mg/kg ADC yielded complete regressions in some mice (2/8 mice in ARD107-vcMMAE (HIC) and 1/8 mice in the stochastic group).

A2058 melanoma cells = experiment: Internalization by A2058 melanoma cells (Zenon pHrodo, flow cytometry); type: cell-based, human; details: overnight with pHrodo-labeled secondary antibody
Method: Briefly, A2058 melanoma cells were plated in tissue culture media at 100,000 cells per well in 96-well tissue culture plates. The cells were pre-incubated with the antibodies prior to an overnight incubation with the pHrodo-labeled secondary antibody. The next day, the cells were harvested and analyzed by flow cytometry. Internalization was determined as the fraction of live cells that stained positive for pHrodo-RED. Data was graphed with Prism (GraphPad, La Jolla, CA). All of the humanized antibodies were internalized by the target cells (FIG. 10).

B1: ARD107-vcMMAE (ARD107-mc-vc-PAB-MMAE), prepared by stochastic conjugation (other)
heavy: EVQLQESGPGLVKPSQSLSLTCSVTGYSITSGYYWNWIRQFPGNKLEWMGYITYDGSNNYNPSLKNRISITRDTSKNQFFLKLNSVTTEDTATYYCADFDYWGQGTTLTVSS[… human IgG1 constant region …]
light: DIVLTQSPSSLSASLGDRVTISCSASQGIRNYLNWYQQRPDGTVKLLIYYTSSLHSGVPSRFSGSGSGTDYSLTISNLEPEDIATYYCQQYSKLPWTFGGGTKLEIKRTVAAPSVFIFPPSDEQLKSGTASVVCLLNNFYPREAKVQWKVDNALQSGNSQESVTEQDSKDSTYSLSSTLTLSKADYEKHKVYACEVTHQGLSSPVTKSFNRGEC
modifications: mc-vc-PAB-MMAE drug linker on cysteines freed by TCEP reduction; positions not given; average drug loading 4 per antibody
- EC50 [1]: 0.27 nM
- EC50 [2]: 0.59 nM
- EC50 [3]: 0.93 nM

B2: ARD107-CL2A-SN38 (other)
heavy: B1 heavy
light: B1 light
modifications: CL2A-SN38 drug linker on cysteines freed by TCEP reduction; positions not given; average drug loading 8 per antibody
notes: Antibody-drug conjugate of ARD107; also called ARD107-SN38; ARD107-SN-38
- EC50 [2]: 0.53 nM

B3: ARD107: anti-CSPG4 antibody, heavy chain SEQ ID NO:3, light chain SEQ ID NO:4; H0L0 chimeric listed as SEQ ID NO: 7 / 8 (antibody)
heavy: B1 heavy
light: B1 light
modifications: Synthetic sequence ARD107 VH-IgG1; Synthetic sequence ARD107 VL-Igkappa
- binding (in words) (NCI-H1975 lung cell line): much less

B4: ARD107-SN38 (conjugate)
heavy: B1 heavy
light: B1 light
- complete regression (number) (A375 melanoma xenograft; 12 mg/kg intravenously once every 4 days): 1
- reduction of tumor burden (in words) (A375 melanoma xenograft; ARD107-SN38 once every 4 days for 6 doses, ARD107-vcMMAE once every 4 days for 4 doses, intravenously): effective in reducing tumor burden

B5: ARD107-vcMMAE (DAR4): ARD107-vcMMAE enriched for 4-load by controlled reduction and conjugation (conjugate)
heavy: B1 heavy
light: B1 light
- tumor burden compared to Vehicle (in words) (A2058 melanoma xenograft): significantly reduced tumor burden

B6: ARD107-vcMMAE (HIC): ARD107-vcMMAE column purified (HIC) for the 4-loaded species (conjugate)
heavy: B1 heavy
light: B1 light
- complete regressions, mice (A2058 melanoma xenograft; 3 mg/kg ADC intravenously once every 4 days for 4 doses): 2/8
- tumor burden compared to Vehicle (in words) (A2058 melanoma xenograft): significantly reduced tumor burden

B7: H1L2: humanized ARD107 antibody, heavy chain SEQ ID NO: 33, light chain SEQ ID NO: 38 (antibody)
heavy: EVQLQESGPGLVKPSQTLSLTCTVSGYSITSGYYWNWIRQFPGNKLEWMGYITYDGSNNYNPSLKNRVTISRDTSKNQFSLKLSSVTAADTAVYYCADFDYWGQGTTVTVSS[… human IgG1 constant region …]
light: B1 light with V3Q, L15V, S22T, R39K, S72T, N77S, E79Q, I83F
modifications: Synthetic sequence humanized ARD107 H1 heavy chain; Synthetic sequence humanized ARD107 L2 light chain
- internalization by target cells (A2058 melanoma cells): better internalization
